In the antibiotic and cytotoxicity screens of Wong et al. (2023):
This is one part of the list.

The compounds below were run on HepG2 (assay: cytotoxicity call (relative viability < 0.9)). Conditions: 10 µM.
C[C@@H]1CN([C@@H](C)CO)C(=O)c2ccccc2-c2ccccc2CO[C@@H]1CN(C)C(=O)Nc1ccccc1C(F)(F)F was tested, and the cytotoxicity call was “active”.
C[C@@H]1CN([C@@H](C)CO)C(=O)c2cccc(NS(=O)(=O)c3ccc(F)cc3)c2O[C@H]1CN(C)S(=O)(=O)c1cn(C)cn1 was tested, and the cytotoxicity call was “inactive”.
CC1=C(/C=C/C(C)=C/C=C/C(C)=C/CO)C(C)(C)CCC1 was tested, and the cytotoxicity call was “inactive”.
For C[C@@H]1CN([C@H](C)CO)C(=O)c2cc(NC(=O)Cn3cnnn3)ccc2O[C@H]1CN(C)C(=O)Nc1cccc2ccccc12, the cytotoxicity call was “active”.
C[C@@H]1CN([C@H](C)CO)C(=O)c2cc(NC(=O)CCN3CCOCC3)ccc2O[C@H]1CN(C)C(=O)Nc1ccc2c(c1)OCO2 was tested, and the cytotoxicity call was “active”.
With COc1ccc([Si](C)(C)[C@@H]2[C@@H](CC(=O)N(CCO)Cc3ccccc3)O[C@]3(C(=O)N(Cc4ccc(N5C(=O)c6cccc7cccc5c67)cc4)c4ccccc43)[C@H]2C)cc1 the cytotoxicity call was “active”.
In the case of CC(C)NC(=O)N(C)C[C@@H]1Oc2ccc(NC(=O)NC3CCCCC3)cc2C(=O)N([C@H](C)CO)C[C@@H]1C, the cytotoxicity call is reported as “inactive”.
For COCC#Cc1ccc2c(c1)O[C@@H](CN(C)S(=O)(=O)c1cccc(F)c1)[C@H](C)CN([C@@H](C)CO)S2(=O)=O, the cytotoxicity call was “inactive”.
In the case of C[C@@H]1CN([C@H](C)CO)C(=O)c2cc(C#Cc3ccc(F)cc3)cnc2O[C@H]1CN(C)CC1CCOCC1, the cytotoxicity call is reported as “inactive”.
With COc1cccc(NC(=O)N2C[C@H](O)COC[C@H]3O[C@H](CC(=O)NC4Cc5ccccc5C4)CC[C@@H]32)c1 the cytotoxicity call was “inactive”.
For CN(C)CCCNC(=O)C[C@@H]1C=C[C@@H](NS(=O)(=O)c2ccccc2)[C@@H](CO)O1, the cytotoxicity call was “inactive”.
C[C@@H]1CN([C@H](C)CO)C(=O)c2cc(NC(=O)CCC(F)(F)F)ccc2O[C@@H](C)CCCCO[C@@H]1CN(C)Cc1ccncc1 was tested, and the cytotoxicity call was “inactive”.

Each compound was assayed on S. aureus RN4220 (assay: growth inhibition call (relative growth <= 0.2)). Conditions: 50 µM.
In the case of C[C@H](CO)N1C[C@H](C)[C@H](CN(C)S(C)(=O)=O)Oc2ccc(NC(=O)Nc3ccccc3)cc2CC1=O, the growth inhibition call is reported as “inactive”.
With C[C@H]1CCCCO[C@@H](CN(C)C(=O)Nc2ccc3c(c2)OCO3)[C@@H](C)CN([C@@H](C)CO)C(=O)c2cc(NS(=O)(=O)c3cccs3)ccc2O1 the growth inhibition call was “inactive”.
With Nc1ncnc2nc(N3CCCCC3)[nH]c12 the growth inhibition call was “inactive”.
In the case of O=C(NCCCN1CCOCC1)[C@@H]1[C@@H](CO)[C@@H]2Cn3c(cccc3=O)[C@H]1N2C(=O)NC1CCCC1, the growth inhibition call is reported as “inactive”.
For C[C@H](CO)N1C[C@H](C)[C@H](CN(C)C(=O)Cc2ccncc2)Oc2cc(C#Cc3ccccc3F)ccc2S1(=O)=O, the growth inhibition call was “inactive”.
O=C1O[C@H](c2ccccc2)[C@H](c2ccccc2)N2[C@H]1[C@@H](C(=O)N1CCCCCCC1)[C@]1(C(=O)Nc3ccc(C#CC4(O)CCCCCC4)cc31)[C@H]2c1ccccc1OCCO was tested, and the growth inhibition call was “inactive”.
For C[C@H]1CCCCO[C@@H](CN(C)Cc2ccncc2)[C@@H](C)CN([C@@H](C)CO)C(=O)c2cc(NS(C)(=O)=O)ccc2O1, the growth inhibition call was “inactive”.
For CO[C@H]1CN(C)C(=O)c2ccc(NC(C)=O)cc2OC[C@H](C)N(S(=O)(=O)c2cn(C)cn2)C[C@H]1C, the growth inhibition call was “inactive”.
CNC(=O)C[C@@H]1CC[C@@H]2[C@H](COC[C@@H](O)CN2C(=O)Nc2cccc(OC)c2)O1 was tested, and the growth inhibition call was “inactive”.
In the case of COc1ccc(S(=O)(=O)Nc2ccc3c(c2)C(=O)N([C@@H](C)CO)C[C@H](C)[C@H](CN(C)C(=O)Nc2ccc(C(F)(F)F)cc2)OCCCC[C@@H](C)O3)cc1, the growth inhibition call is reported as “inactive”.
COc1cccc(S(=O)(=O)N(C)C[C@H]2Oc3ncc(Br)cc3C(=O)N([C@H](C)CO)C[C@H]2C)c1 was tested, and the growth inhibition call was “inactive”.
With Cc1cc(C(=O)Nc2cccc3c2O[C@@H](CN(C)S(=O)(=O)c2ccccc2)[C@H](C)CN([C@H](C)CO)C3=O)n(C)n1 the growth inhibition call was “inactive”.
For C[C@H](CO)N1C[C@H](C)[C@H](CN(C)Cc2ccc(Oc3ccccc3)cc2)Oc2c(NC(=O)Nc3ccc(C(F)(F)F)cc3)cccc2C1=O, the growth inhibition call was “inactive”.
In the case of C[C@@H]1CCCCO[C@@H](CN(C)S(=O)(=O)c2ccccc2)[C@H](C)CN([C@H](C)CO)C(=O)c2cc(NC(=O)Nc3ccc(F)cc3)ccc2O1, the growth inhibition call is reported as “inactive”.
For C[C@@H]1CN([C@@H](C)CO)S(=O)(=O)c2ccc(C#Cc3ccccc3F)cc2O[C@H]1CN(C)CC1CCOCC1, the growth inhibition call was “inactive”.
With C[C@@H]1CN([C@@H](C)CO)C(=O)c2cc(NS(=O)(=O)c3cccs3)ccc2O[C@@H](C)CCCCO[C@@H]1CN(C)C(=O)Nc1ccc(C(F)(F)F)cc1 the growth inhibition call was “inactive”.
